Data: the supplement of paper PMC12217912
Some of the results follow. The full chains were built here from the parent and the listed change. Values near 0.05 are background.

B1: TEV protease; numbered along this chain (parent)
chain: MGESLFKGPRDYNPISSSICHLTNESDGHTTSLYGIGFGPFIITNKHLFRRNNGTLVVQSLHGVFKVKDTTTLQQHLVDGRDMIIIRMPKDFPPFPQKLKFREPQREERICLVTTNFQTKSMSSMVSDTSCTFPSGDGIFWKHWIQTKDGQCGSPLVSTRDGFIVGIHSASNFTNTNNYFTSVPKNFMELLTNQEAQQWVSGWRLNADSVLWGGHKVFMVKPEEPFQPVKEATQL

Variants of: B1
Assay: raw area under fraction-flipped curve 0-4 h after induction (AUC4h, not background-subtracted), DNA-recorder readout of cleavage of the substrate (dimensionless); higher = more cleavage of the substrate by the protease variant
Settings: temperature: 34 °C; time window: 0-4 h after rhamnose induction
Method: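 In vivo DNA recorder in E. coli TOP10(DE3) ΔrhaA at 34 °C. Each TEVp single-site mutant (parent TEVp 0) is paired with a single-site variant of the 7-mer TEVs (canonical ENLYFQ|S). The substrate sits between flexible linkers in a Bxb1-sfGFP-TEVs-SsrA fusion, so cleavage stabilises Bxb1 and speeds flipping of a recombination array, read by NGS. The value is the raw area under the fraction-flipped curve over 0-4 h after rhamnose induction (AUC4h), with ≥20 reads per time point. It is not background-subtracted; inactive controls average about 0.047.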
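Further: Bxb1 expression induced with 0.2% (w/v) L-rhamnose at OD600 near 0.5, cultures sampled hourly, flipped fraction per protease–substrate barcode pair counted by paired-end Illumina sequencing.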

Variant	area with substrate ENLYDQS	area with substrate ENLYEQS	area with substrate ENLYHQS	area with substrate ENLYKQS	area with substrate ENLYNQS	area with substrate ENLYSQS	area with substrate ENLYIQS	area with substrate ENLYRQS	area with substrate ENLYYQS	area with substrate ENLYGQS	area with substrate ENLYPQS	area with substrate ENLYQQS	area with substrate ENLYVQS	area with substrate ENLYWQS	area with substrate ENLYLQS	area with substrate ENLYMQS	area with substrate ENLYTQS
F187V	0.0644	0.0682	0.0634	0.0215	0.0723	0.0695											
F92W	0.0515	0.0706	0.11	0.0452		0.0688	0.112	0.06	0.0597								
N116G	0.0638	0.106	0.0722	0.0627		0.0665	0.112	0.0323		0.0576	0.067	0.0484	0.102	0.0825			
Q146Y	0.0685	0.0683		0.0716	0.0628			0.0497		0.0697		0.071	0.142	0.0849	0.073	0.107	
T129A	0.0428	0.073	0.0358	0.0338	0.0726			0.0481		0.0698		0.0558	0.119	0.0751		0.0832	
N193H	0.0663	0.0751	0.0711	0.0616	0.0809											0.0047	
R109A	0.0415	0.0583	0.0812	0.0769	0.0938	0.0953	0.142	0.0646	0.0714	0.0615				0.0686	0.11	0.091	
G162E	0.045	0.062	0.0624	0.0765		0.0664	0.11		0.0605	0.0538						0.0732	
P225Y	0.0506	0.0743	0.0632	0.0583	0.064	0.0625	0.114			0.0749		0.0842		0.0844			0.0637
N193F	0.0646		0.0671	0.0751						0.054	0.0702			0.0564		0.0851	
Y34M	0.0692		0.0646		0.0777	0.0734				0.0644	0.064	0.0525		0.0887	0.0643	0.0853	
C111Q	0.0561	0.0604	0.0803	0.0326	0.0434	0.0834	0.118			0.0842	0.0724		0.111	0.0975		0.0878	
G162Q	0.0561		0.0753	0.0406		0.0814		0.0613		0.0521		0.0445	0.0888	0.0856		0.0846	
G35H	0.0334	0.0389	0.0545		0.0382	0.0423			0.047	0.0486	0.0402	0.0273	0.0329			0.0525	
K90D	0.0805	0.0642	0.105		0.0643		0.143			0.0795		0.0637	0.134				
A170L	0.0573	0.0538	0.0601	0.0608		0.0306		0.0602				0.0616					
P9D	0.0682		0.0613	0.0082							0.0674	0.112	0.0979	0.0629		0.0953	
N172D	0.0513	0.0651	0.0556		0.0718			0.0696	0.0574		0.0707		0.108	0.0359		0.0531	
V58W	0.0367	0.0651	0.0485	0.037		0.0549	0.0552									0.0481	

Variant	area with substrate ENLYDQS	area with substrate ENLYEQS	area with substrate ENLYHQS	area with substrate ENLYKQS	area with substrate ENLYNQS	area with substrate ENLYSQS	area with substrate ENLYIQS	area with substrate ENLYRQS	area with substrate ENLYYQS	area with substrate ENLYGQS	area with substrate ENLYPQS	area with substrate ENLYQQS	area with substrate ENLYVQS	area with substrate ENLYWQS	area with substrate ENLYLQS	area with substrate ENLYMQS	area with substrate ENLYTQS
S209M	0.0661	0.0676	0.0619			0.0719	0.127	0.0502		0.0797	0.0686		0.0037			0.0803	
T181N	0.057		0.0623		0.0557		0.0626	0.0673	0.0581		0.0662		0.076	0.058			0.0411
T72I	0.0476	0.0528		0.0496	0.0786	0.0762		0.0491	0.073			0.0321		0.0812		0.0808	
I110W	0.0443	0.055	0.0512				0.0352	0.0596			0.0561		0.0639				
R87M	0.0551		0.0612	0.0818	0.0647	0.0733											
P89I	0.0699	0.0495	0.0423		0.058	0.0705		0.0552	0.0394	0.0405	0.0679		0.0816			0.0448	
E231K	0.0671		0.0746	0.114		0.0972				0.0648	0.0729		0.11	0.0726			
A170P	0.048		0.0706			0.0686						0.0501	0.0485				
W203F	0.0707	0.0734				0.078				0.0789	0.0793			0.0655			
A196P	0.065		0.0756	0.0688	0.0543	0.102		0.059	0.0981	0.0648		0.0568					
F218E	0.0541	0.064	0.0542	0.0629	0.0627		0.0818	0.0551		0.0541	0.063	0.0615	0.104	0.0602	0.0666	0.0727	
F117Y	0.0604		0.0767			0.0818	0.151	0.0542		0.0401			0.138				
F49L	0.078	0.0593					0.0516	0.077			0.0637						
L56N	0.035	0.0336	0.0498	0.0423	0.0611		0.0456		0.0517	0.0384	0.0456	0.0472	0.0494	0.048	0.0433	0.0379	0.0417
R87E	0.0728	0.0597	0.0654		0.042	0.0775		0.0745					0.117				
Y34D	0.0644		0.0632	0.0468	0.0499						0.0657		0.0795	0.0358			0.0489
V229N	0.0689	0.0907	0.0753	0.063	0.0719		0.145	0.0727			0.0623	0.0586	0.116	0.0882	0.0734		0.109
F187K	0.0535		0.0517	0.0638	0.0413	0.0508		0.069				0.0443		0.0501			
